The other results are listed elsewhere or left out.
Tests used:
Test in all cases: glycan array binding signal (z-score within array); higher = stronger binding
Conditions in all cases: glycan notation: IUPAC condensed, linker removed
[1] = molecular target: Gal(b1-4)GlcNAc(a1-6)Gal(b1-4)GlcNAc
Method in brief: (§1)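 From the Consortium for Functional Glycomics database, 3228 arrays were curated, keeping only those whose protein sequence was available. Binding is given as a within-array Z-score averaged across arrays sharing a protein sequence and across linkers. Negative Z-scores can be read as non-binding.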

[2] = molecular target: Gal(b1-4)GlcNAc(b1-2)Man(a1-3)Man(b1-4)GlcNAc(b1-4)GlcNAc
Method in brief: as §1

[3] = molecular target: Gal(b1-4)GlcNAc(b1-2)Man(a1-3)[Gal(b1-4)GlcNAc(b1-2)Man(a1-6)]Man(b1-4)GlcNAc(b1-4)GlcNAc
Method in brief: as §1

[4] = molecular target: Gal(b1-4)GlcNAc(b1-2)Man(a1-3)[Gal(b1-4)GlcNAc(b1-2)Man(a1-6)]Man(b1-4)GlcNAc(b1-4)[Fuc(a1-6)]GlcNAc
Method in brief: as §1

[5] = molecular target: Gal(b1-4)GlcNAc(b1-2)Man(a1-3)[GlcNAc(b1-2)Man(a1-6)]Man(b1-4)GlcNAc(b1-4)GlcNAc
Method in brief: as §1

[6] = molecular target: Gal(b1-4)GlcNAc(b1-2)Man(a1-3)[Man(a1-6)]Man(b1-4)GlcNAc(b1-4)GlcNAc
Method in brief: as §1

[7] = molecular target: Gal(b1-4)GlcNAc(b1-2)Man(a1-6)Man(b1-4)GlcNAc(b1-4)GlcNAc
Method in brief: as §1

[8] = molecular target: Gal(b1-4)GlcNAc(b1-2)Man(a1-6)[GlcNAc(b1-2)Man(a1-3)]Man(b1-4)GlcNAc(b1-4)GlcNAc
Method in brief: as §1

[9] = molecular target: Gal(b1-4)GlcNAc(b1-2)Man(a1-6)[Man(a1-3)]Man(b1-4)GlcNAc(b1-4)GlcNAc
Method in brief: as §1

[10] = molecular target: Gal(b1-4)GlcNAc(b1-2)[Gal(b1-4)GlcNAc(b1-4)]Man(a1-3)[Gal(b1-4)GlcNAc(b1-2)Man(a1-6)]Man(b1-4)GlcNAc(b1-4)GlcNAc
Method in brief: as §1

[11] = molecular target: Gal(b1-4)GlcNAc(b1-2)[Gal(b1-4)GlcNAc(b1-4)]Man(a1-3)[Gal(b1-4)GlcNAc(b1-2)[Gal(b1-4)GlcNAc(b1-6)]Man(a1-6)]Man(b1-4)GlcNAc(b1-4)GlcNAc
Method in brief: as §1

[12] = molecular target: Gal(b1-4)GlcNAc(b1-3)Gal(b1-3)GlcNAc
Method in brief: as §1

[13] = molecular target: Gal(b1-4)GlcNAc(b1-3)Gal(b1-4)Glc
Method in brief: as §1

[14] = molecular target: Gal(b1-4)GlcNAc(b1-3)Gal(b1-4)GlcNAc
Method in brief: as §1

[15] = molecular target: Gal(b1-4)GlcNAc(b1-3)Gal(b1-4)GlcNAc(b1-3)Gal(b1-4)GlcNAc
Method in brief: as §1

[16] = molecular target: Gal(b1-4)GlcNAc(b1-3)Gal(b1-4)[Fuc(a1-3)]GlcNAc(b1-3)Gal(b1-4)[Fuc(a1-3)]GlcNAc
Method in brief: as §1

[17] = molecular target: Gal(b1-4)GlcNAc(b1-3)GalNAc
Method in brief: as §1

[18] = molecular target: Gal(b1-4)GlcNAc(b1-3)[Gal(b1-4)GlcNAc(b1-6)]Gal(b1-4)GlcNAc
Method in brief: as §1

[19] = molecular target: Gal(b1-4)GlcNAc(b1-3)[Gal(b1-4)GlcNAc(b1-6)]GalNAc
Method in brief: as §1

[20] = molecular target: Gal(b1-4)GlcNAc(b1-3)[GlcNAc(b1-6)]Gal(b1-4)GlcNAc
Method in brief: as §1

[21] = molecular target: Gal(b1-4)GlcNAc(b1-6)Gal(b1-4)GlcNAc
Method in brief: as §1

[22] = molecular target: Gal(b1-4)GlcNAc(b1-6)GalNAc
Method in brief: as §1

[23] = molecular target: Gal(b1-4)GlcNAc(b1-6)[Gal(b1-3)]GalNAc
Method in brief: as §1

[24] = molecular target: Gal3S(b1-3)GalNAc
Method in brief: as §1

[25] = molecular target: Gal3S(b1-3)GlcNAc
Method in brief: as §1

[26] = molecular target: Gal3S(b1-3)[Fuc(a1-4)]GlcNAc
Method in brief: as §1

[27] = molecular target: Gal3S(b1-4)Glc
Method in brief: as §1

[28] = molecular target: Gal3S(b1-4)Glc6S
Method in brief: as §1

[29] = molecular target: Gal3S(b1-4)GlcNAc
Method in brief: as §1

[30] = molecular target: Gal3S(b1-4)GlcNAc6S
Method in brief: as §1

[31] = molecular target: Gal3S(b1-4)[Fuc(a1-3)]Glc
Method in brief: as §1

[32] = molecular target: Gal3S(b1-4)[Fuc(a1-3)]Glc6S
Method in brief: as §1

[33] = molecular target: Gal3S4S(b1-4)GlcNAc
Method in brief: as §1

[34] = molecular target: Gal3S6S(b1-4)GlcNAc
Method in brief: as §1

[35] = molecular target: Gal3S6S(b1-4)GlcNAc6S
Method in brief: as §1

[36] = molecular target: Gal4S(b1-4)GlcNAc
Method in brief: as §1

[37] = molecular target: Gal4S6S(b1-4)GlcNAc
Method in brief: as §1

[38] = molecular target: Gal6S(b1-4)Glc
Method in brief: as §1

[39] = molecular target: Gal6S(b1-4)Glc6S
Method in brief: as §1

[40] = molecular target: Gal6S(b1-4)GlcNAc
Method in brief: as §1

[41] = molecular target: Gal6S(b1-4)GlcNAc6S
Method in brief: as §1

[42] = molecular target: GalNAc(a1-3)Gal
Method in brief: as §1

[43] = molecular target: GalNAc(a1-3)GalNAc
Method in brief: as §1

[44] = molecular target: GalNAc(a1-3)GalNAc(a1-3)Gal(a1-4)Gal(b1-4)GlcNAc
Method in brief: as §1

[45] = molecular target: GalNAc(b1-3)Gal
Method in brief: as §1

B1: CTLY 1 (Homo sapiens), Q6ZS10 (protein)
chain: AITCPEGWLPFEGKCYYFSPSTKSWDEARMFCQENYSHLVIINSFAEHNFVAKAHGSPRVYWLGLNDRAQEGDWRWLDGSPVTLSFWEPEEPNNIHDEDCATMNKGGTWNDLSCYKTTYWICERKGLNDIFEAQKIEWHE
- glycan array binding signal (z-score) [1]: -0.231
- glycan array binding signal (z-score) [2]: -0.206
- glycan array binding signal (z-score) [3]: -0.242
- glycan array binding signal (z-score) [4]: -0.239
- glycan array binding signal (z-score) [5]: -0.236
- glycan array binding signal (z-score) [6]: -0.219
- glycan array binding signal (z-score) [7]: -0.226
- glycan array binding signal (z-score) [8]: -0.215
- glycan array binding signal (z-score) [9]: -0.232
- glycan array binding signal (z-score) [10]: -0.241
- glycan array binding signal (z-score) [11]: -0.227
- glycan array binding signal (z-score) [12]: -0.234
- glycan array binding signal (z-score) [13]: -0.243
- glycan array binding signal (z-score) [14]: -0.24
- glycan array binding signal (z-score) [15]: -0.25
- glycan array binding signal (z-score) [16]: -0.176
- glycan array binding signal (z-score) [17]: -0.245
- glycan array binding signal (z-score) [18]: -0.234
- glycan array binding signal (z-score) [19]: -0.246
- glycan array binding signal (z-score) [20]: -0.243
- glycan array binding signal (z-score) [21]: -0.244
- glycan array binding signal (z-score) [22]: -0.23
- glycan array binding signal (z-score) [23]: -0.243
- glycan array binding signal (z-score) [24]: -0.233
- glycan array binding signal (z-score) [25]: -0.243
- glycan array binding signal (z-score) [26]: 1.29
- glycan array binding signal (z-score) [27]: -0.251
- glycan array binding signal (z-score) [28]: -0.232
- glycan array binding signal (z-score) [29]: -0.252
- glycan array binding signal (z-score) [30]: -0.232
- glycan array binding signal (z-score) [31]: 2.06
- glycan array binding signal (z-score) [32]: 1.02
- glycan array binding signal (z-score) [33]: -0.242
- glycan array binding signal (z-score) [34]: -0.219
- glycan array binding signal (z-score) [35]: -0.253
- glycan array binding signal (z-score) [36]: -0.251
- glycan array binding signal (z-score) [37]: -0.252
- glycan array binding signal (z-score) [38]: -0.235
- glycan array binding signal (z-score) [39]: -0.211
- glycan array binding signal (z-score) [40]: -0.235
- glycan array binding signal (z-score) [41]: -0.228
- glycan array binding signal (z-score) [42]: -0.249
- glycan array binding signal (z-score) [43]: -0.231
- glycan array binding signal (z-score) [44]: -0.239
- glycan array binding signal (z-score) [45]: -0.248

From the supplement of paper PMC8728848
